Reference: PubChem BioAssay AID463173 (ICCB-Longwood Screening Facility, Harvard Medical School, 2010)
Screen size: about 52,000 compounds; about 1,700 (3.3%) were called active. Cut-off read from the data, not from the text of the source: active = survival mostly below about 52% (no sharp cut-off); inactive = mostly above about 56%. The list shows a part of the results.

system: Wild type; experiment: S. aureus survival, RN4220 and DeltatarO strains – OD600, teichoic acid synthesis inhibitors, primary screen (AID 463173); conditions: S. aureus RN4220 wild type/DeltatarO growth, OD600, 18 h, hits give low values, screened at 18.75 µg/mL (by protocol)

Question: `Nc1cc(=O)nc(SCC(=O)Nc2ccc(F)cc2)n1-c1ccc(Cl)cc1` was tested. Which survival did it give?
Answer: inactive: 72%

Question: For `CCOc1ccc(NC(=O)N(Cc2c[nH]c3ccccc23)C2CCCCC2)cc1`, which survival is on record?
Answer: inactive: 79%

Question: For `Cc1ccc(CNCc2c(C(=O)O)n(Cc3ccccc3C)c3cc(C)ccc23)cc1`, which survival is on record?
Answer: inactive: 63%

Question: Which survival does the source give for `Nc1ncnc2nc(SCC(=O)O)[nH]c12` here?
Answer: inactive: 104%

Question: Which survival does the source give for `CCCCNC(=O)c1[nH]c2ccccc2c1Sc1ccc(C)cc1` here?
Answer: inactive: 83%

Question: With `O=C(Cn1c(=O)sc2ccccc21)Nc1cccc(Cl)c1` as the molecule, how does the survival read?
Answer: inactive: 102%

Question: For `CC1(C)CC2CC(C)(CN2C(=O)c2cc(-c3ccccc3)on2)C1` (stereo not given), which survival is on record?
Answer: inactive: 97%

Question: With `Cn1cc(S(=O)(=O)N2CCCCC2)cc1C(=O)N1CCN(c2ccc(F)cc2)CC1` as the molecule, how does the survival read?
Answer: inactive: 65%

Question: `Cc1cc(=O)n(CC(=O)NCCC(C)C)c2c1c(C)nn2C` was tested. Which survival did it give?
Answer: inactive: 71%

Question: For `Cc1ccc2c(c1)c(=O)c(C(=O)c1ccncc1)cn2CC(=O)Nc1c(C)cccc1C`, which survival is on record?
Answer: inactive: 72%

Question: `Cc1cc2c(=O)c(C(=O)c3ccncc3)cn(CC(=O)Nc3cccc(C)c3C)c2cc1C` was tested. Which survival did it give?
Answer: inactive: 78%

Question: For `CC(NC(=O)CN(C)S(=O)(=O)c1ccc2c(c1)c(=O)n(C)c(=O)n2C)c1ccccc1` (stereo not given), which survival is on record?
Answer: inactive: 77%

Question: `Cc1oc(-c2ccc(C(=O)NCc3ccc(N(C)C)cc3)cc2)nc1COc1ccccc1` was tested. Which survival did it give?
Answer: inactive: 55%

Question: Which survival does the source give for `Cc1ccc(C)c(S(=O)(=O)c2cnc(SCC(=O)Nc3ccc(F)cc3F)[nH]c2=O)c1` here?
Answer: inactive: 70%

Question: For `CCc1ccc(NC(=O)CSc2nccn2C2CCCC2)cc1`, which survival is on record?
Answer: inactive: 84%

Question: With `COc1ccc(CCNC(=O)Cn2nc(C)n3c(cc4occc43)c2=O)cc1OC` as the molecule, how does the survival read?
Answer: inactive: 86%

Question: For `CCOC(=O)c1c(S(=O)(=O)N2CCCC(C(=O)N3CCN(c4ccc(F)cc4)CC3)C2)c(C)n(C)c1C` (stereo not given), which survival is on record?
Answer: inactive: 81%

Question: How did the survival turn out when `COc1ccc(CCNC(=O)Cn2ncc3c(C)n(Cc4ccccc4F)c(C)c3c2=O)cc1OC` was run?
Answer: inactive: 94%

Question: How did the survival turn out when `CCN(CC)CCNC(=O)C1CCCN(c2ncnc3onc(C)c23)C1` (stereo not given) was run?
Answer: inactive: 77%

Question: Which survival does the source give for `Cc1c(C(N)=O)nnn1-c1ccc(Br)cc1` here?
Answer: inactive: 102%

Question: With `Cc1ccc(C)c(-c2csc(-c3c(N)c(C(=O)c4ccc5c(c4)OCO5)n4ccccc34)n2)c1` as the molecule, how does the survival read?
Answer: inactive: 112%

Question: For `COc1ccc(NC(c2ccc(F)cc2)c2nnc(-c3ccccc3Cl)o2)cc1Cl` (stereo not given), which survival is on record?
Answer: inactive: 88%

Question: With `Cc1cccc(NC(=O)Cn2c(=O)oc3cc(S(=O)(=O)NCc4ccccc4)ccc32)c1` as the molecule, how does the survival read?
Answer: inactive: 92%

Question: For `Cc1ccc2nc(N(Cc3cccnc3)C(=O)C3CCCCC3)sc2c1`, which survival is on record?
Answer: inactive: 68%

Question: With `COc1ccc(Br)cc1C1CC(=O)Nc2c1c(C)nn2-c1nc(C)cc(C)n1` (stereo not given) as the molecule, how does the survival read?
Answer: inactive: 90%

Question: Which survival does the source give for `CCn1cc(C(=O)OCC(=O)Nc2cc(Cl)ccc2OC)c(=O)c2ccc(C)nc21` here?
Answer: inactive: 69%

Question: For `COc1cc(CNCc2c(C(=O)O)c(C)n(Cc3cccc(Cl)c3)c2C)cc(OC)c1OC`, which survival is on record?
Answer: inactive: 83%

Question: For `CCc1ccc2nc(N3CCC(C(=O)O)CC3)sc2c1`, which survival is on record?
Answer: inactive: 75%

Question: How did the survival turn out when `CCc1cccc(NC(=O)CN2C(=O)CCc3cc(S(=O)(=O)N4CCOCC4)ccc32)c1` was run?
Answer: inactive: 71%

Question: `CCSc1nc2n(n1)C(c1ccc(CC)cc1)C(C(=O)Nc1ccccc1OC)=C(C)N2` (stereo not given) was tested. Which survival did it give?
Answer: inactive: 68%

Question: For `CCC(C(=O)N1CCN(c2cc(Cl)ccc2C)CC1)n1nc(C)n2c(cc3occc32)c1=O` (stereo not given), which survival is on record?
Answer: inactive: 86%

Question: How did the survival turn out when `Cc1c(Cl)cccc1-n1c(CCC(=O)O)ccc1-c1cccs1` was run?
Answer: inactive: 69%

Question: For `COc1ccc(Br)cc1CNC(=O)C(C)n1nc(C)n2c(cc3occc32)c1=O` (stereo not given), which survival is on record?
Answer: inactive: 61%

Question: For `CCN(CC)c1cc(C)nc2nc(-c3ccc(C)cc3)nn12`, which survival is on record?
Answer: inactive: 83%

Question: Which survival does the source give for `O=C(CN(c1cccc(Br)c1)S(=O)(=O)c1ccccc1)N1CCOCC1` here?
Answer: inactive: 104%

Question: Which survival does the source give for `Cc1ccc2oc(C(=O)Nc3nnc(CC(C)C)s3)cc(=O)c2c1` here?
Answer: inactive: 85%

Question: For `CC(C)(CO)C(O)C(=O)NN` (stereo not given), which survival is on record?
Answer: inactive: 103%

Question: Which survival does the source give for `COc1ccc(N2CCN(C(=O)c3cc4c(=O)n(Cc5ccccc5)ccc4nc3C)CC2)cc1` here?
Answer: inactive: 74%

Question: How did the survival turn out when `Cc1ccc(CN2CCSc3ccc(C(=O)Nc4ccc(F)cc4F)cc32)cc1` was run?
Answer: inactive: 97%

Question: Which survival does the source give for `COC(=O)c1nnn(CC(=O)NC(=O)Nc2ccccc2F)c1C(=O)OC` here?
Answer: inactive: 77%

Question: With `Cc1noc(NS(=O)(=O)c2ccc(NC(=O)c3ccc(Br)cc3)cc2)c1C` as the molecule, how does the survival read?
Answer: inactive: 72%

Question: How did the survival turn out when `Cc1ccc(OCc2nnc(SCC(=O)CC(=O)Nc3ccccc3)o2)cc1` was run?
Answer: inactive: 84%

Question: For `CCCN(CCC)C1=CC(=O)C(C(C)(C)C)=CC1=O`, which survival is on record?
Answer: inactive: 101%

Question: How did the survival turn out when `C=CCn1c(SCC(=O)O)nnc1-c1ccco1` was run?
Answer: inactive: 101%

Question: `Cc1c(Cl)cccc1NC(=O)c1ccc2nc(C(C)C)oc2c1` was tested. Which survival did it give?
Answer: inactive: 77%

Question: With `CCc1ccccc1Nc1nn2c(=O)c3ccc(C(=O)Nc4ccc(OC)cc4)cc3nc2s1` as the molecule, how does the survival read?
Answer: inactive: 66%

Question: Which survival does the source give for `Cc1ccc(-c2cc(C(=O)N3CCCC3)no2)cc1` here?
Answer: inactive: 109%

Question: How did the survival turn out when `CCN1CCC(N(Cc2ccc(F)cc2)C(=O)Nc2cccc(C(F)(F)F)c2)CC1` was run?
Answer: inactive: 124%

Question: For `CC(C)n1c(SCC(=O)N(Cc2ccccc2)C(C)(C)C)nc2c1c(=O)n(C)c(=O)n2C`, which survival is on record?
Answer: inactive: 105%

Question: Which survival does the source give for `Cc1c(-c2ccccc2)nc2ccccc2c1C(=O)O` here?
Answer: inactive: 110%

Question: For `O=C(CSc1nc2ccccc2nc1Cc1ccccc1)N1CCN(c2ccccc2)CC1`, which survival is on record?
Answer: inactive: 68%

Question: Which survival does the source give for `CC(=O)Nc1cc(-c2ccccc2)nn1Cc1cccc(Cl)c1` here?
Answer: inactive: 59%

Question: With `Cc1cccc(NC(=O)NCCOCCn2c(=O)oc3ccccc32)c1C` as the molecule, how does the survival read?
Answer: inactive: 112%

Question: How did the survival turn out when `O=C(O)CN=C1NC2(CCCC2)Cc2ccccc21` was run?
Answer: inactive: 109%

Question: For `CC1Cc2cc(S(=O)(=O)CCC(=O)Nc3ccc(Cl)cc3F)ccc2N1C(=O)C1CC1` (stereo not given), which survival is on record?
Answer: inactive: 66%

Question: For `COc1ccc(CCC(=O)NCc2nc3cccnc3n2Cc2ccccc2)cc1`, which survival is on record?
Answer: inactive: 63%

Question: How did the survival turn out when `CCc1ccccc1NC(=O)C1CCN(S(=O)(=O)c2cc(OC)ccc2OC)CC1` was run?
Answer: inactive: 103%

Question: Which survival does the source give for `COc1ccc(-c2nnn(CCC(=O)O)n2)cc1` here?
Answer: inactive: 102%

Question: Which survival does the source give for `CC(C)Oc1ccc(C(=O)Nc2ccc(-c3nc4ccccc4s3)cc2)cc1` here?
Answer: inactive: 92%

Question: `COc1ccc(CCNC(=O)CCc2c(C)c3cc4c(C)coc4cc3oc2=O)cc1` was tested. Which survival did it give?
Answer: inactive: 90%

Question: `COc1ccccc1C(=O)Nc1cc(-c2ccc(C)cc2)no1` was tested. Which survival did it give?
Answer: inactive: 73%

Question: For `Cc1ccccc1Cn1c(CN2CCN(c3cc(Cl)ccc3C)CC2)nc2c1c(=O)[nH]c(=O)n2C`, which survival is on record?
Answer: inactive: 122%

Question: With `CCOc1ccc(CCNC(=O)CCn2c(=O)c3cccn3c3cccnc32)cc1` as the molecule, how does the survival read?
Answer: inactive: 90%

Question: `Cc1ccc(Cl)cc1NC(=O)CCCN1C(=O)CCn2nc(-c3cn(C)c4ccccc34)cc21` was tested. Which survival did it give?
Answer: inactive: 120%

Question: Which survival does the source give for `OC(COc1ccc2ccccc2c1)Cn1ccnc1` (stereo not given) here?
Answer: inactive: 113%

Question: For `COc1ccc(N2CCN(C(=O)c3cc4cc5ccc(Cl)cc5nc4o3)CC2)cc1`, which survival is on record?
Answer: inactive: 87%

Question: With `COc1ccc(C)cc1S(=O)(=O)NCC(c1ccc(N(C)C)cc1)N1CCc2ccccc21` (stereo not given) as the molecule, how does the survival read?
Answer: inactive: 65%

Question: With `CN(c1ccccc1)c1ncnc2c1cnn2C` as the molecule, how does the survival read?
Answer: inactive: 105%

Question: With `CCC(=O)Nc1ccccc1-c1nc2ccccc2n(C(C)C(=O)Nc2ccc(OC)cc2)c1=O` (stereo not given) as the molecule, how does the survival read?
Answer: inactive: 82%

Question: Which survival does the source give for `O=C(O)c1ccc(N2C(=O)c3[nH]nc(-c4ccccc4)c3C2c2cccc(F)c2)cc1` (stereo not given) here?
Answer: inactive: 71%

Question: `COc1cccc(-c2nc3c(c(C)nn3-c3ccccc3)c3cc(OC)c(OC)cc23)c1` was tested. Which survival did it give?
Answer: inactive: 82%

Question: For `CCc1ccc(C2C(C(=O)Nc3ccc(Cl)cc3)=C(C)Nc3ncnn32)cc1` (stereo not given), which survival is on record?
Answer: inactive: 59%

Question: For `Cc1ccc2c(c1)C(=O)OC(C(=O)Nc1ncc(Cc3ccccc3)s1)C2` (stereo not given), which survival is on record?
Answer: inactive: 71%

Question: How did the survival turn out when `CCNc1nc(Oc2ccc(=O)n(-c3ccccc3)n2)nc(N(C)C)n1` was run?
Answer: inactive: 74%

Question: With `Cc1cc(NC(=O)N2CCC(CN3CCOCC3)CC2)ccc1Br` as the molecule, how does the survival read?
Answer: inactive: 117%

Question: With `COc1cccc(C2C(=O)N(C3CCCCC3)CC(=O)N2Cc2ccc(Cl)cc2)c1` (stereo not given) as the molecule, how does the survival read?
Answer: inactive: 83%

Question: Which survival does the source give for `Cc1ccc(NC(=O)Cn2c(=O)oc3cc(S(=O)(=O)N4CCC(C)CC4)ccc32)cc1Cl` here?
Answer: inactive: 150%

Question: For `Cc1cccc(C(=O)N(Cc2ccco2)Cc2ccccc2F)c1`, which survival is on record?
Answer: inactive: 113%

Question: For `CCOc1cc(C(=O)Nc2ccc(-c3nc4cc(Cl)ccc4o3)cc2)cc(OCC)c1OCC`, which survival is on record?
Answer: inactive: 90%

Question: `CC(=O)c1cccc(-n2c(=O)c3c4c(sc3n(CC(=O)c3ccc(Cl)cc3)c2=O)CN(C(C)=O)CC4)c1` was tested. Which survival did it give?
Answer: inactive: 89%

Question: Which survival does the source give for `CC1CCCCN1C(=O)CSc1n[nH]c(-c2ccccc2)n1` (stereo not given) here?
Answer: inactive: 87%

Question: With `Cn1cc(C(=O)NCCc2ccc(Cl)cc2)c(=O)c2cc(S(=O)(=O)N3CCOCC3)ccc21` as the molecule, how does the survival read?
Answer: inactive: 81%

Question: For `COc1ccc(CNC(=O)CCCc2nnc3n(CCC(C)C)c(=O)c4sccc4n23)cc1`, which survival is on record?
Answer: inactive: 111%

Question: With `O=c1[nH]c(C2CCCN(S(=O)(=O)c3ccccc3Cl)C2)nc2c1nnn2Cc1ccc(OC(F)(F)F)cc1` (stereo not given) as the molecule, how does the survival read?
Answer: inactive: 65%

Question: `CCc1nn(CCCC(=O)N2CCN(c3ccc(OC)cc3)CC2)c(=O)c2cc3occc3n12` was tested. Which survival did it give?
Answer: inactive: 105%

Question: Which survival does the source give for `COc1ccc(CCNC(=O)c2ccc3c(c2)c(C)c(C)n3Cc2ccccc2)c(OC)c1OC` here?
Answer: inactive: 68%

Question: `Cc1ccc(CCNC(=O)C2CC(=O)N(CCc3ccccc3)C2)cc1` (stereo not given) was tested. Which survival did it give?
Answer: inactive: 77%

Question: For `COc1ccc(S(=O)(=O)N(CC(=O)O)c2cc(Cl)ccc2OC)cc1OC`, which survival is on record?
Answer: inactive: 106%

Question: With `CCOc1ccc(Nc2ncnc3c2nc2n3CCCCC2)cc1` as the molecule, how does the survival read?
Answer: inactive: 131%

Question: `Cc1cccc(N2CCN(C(=O)Cn3ncc4c3-c3ccccc3OC4)CC2)c1C` was tested. Which survival did it give?
Answer: inactive: 77%
